Data as given in PubChem BioAssay AID624173 (National Center for Advancing Translational Sciences (NCATS), 2012).
The campaign covered roughly 410,000 compounds. About 490 (0.12%) were called active. Inconclusive results, whose numbers are uncertain, are shown with a selection of clear calls. Calls come from the whole dose curve; as a rule, active = well fitted inhibition curve with a large enough effect; inconclusive = small, poorly fitted or top-dose-only effect; inactive = flat fitted curve, though single readings scatter. Where the call is inconclusive, the potency comes from a doubtful curve fit.
Note: nearly all actives have a fitted effect of over 50% in size.
Potency is the fitted concentration of half-maximal effect; tags give direction and shape of the fitted curve.

The molecules below were run against pyruvate kinase (Trypanosoma brucei) (UniProt Q57TT1) (assay: qHTS of Trypanosoma Brucei Inhibitors). Details: TbPYK enzyme, Kinase-Glo Plus ATP luminescence, 45 min; series mostly up to 76.8 µM.
In short: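 ADP (130 uM final) triggers the TbPYK reaction after compound addition; incubation is 45 min at room temperature. Kinase-Glo Plus is then added and luminescence imaged. Normalized data are fitted to concentration-effect curves.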
S=c1[nH]nc(-c2cc(-c3ccccc3)n[nH]2)n1/N=C/c1ccc(Cl)cc1 was tested, and the Potency was inconclusive: 17.8 µM [inhibitor, partial curve, poor fit].
With O=C(Nc1nnc(SCc2ccc(Cl)cc2)s1)c1ccco1 the Potency was inconclusive: 22.4 µM [inhibitor, partial curve].
For Cc1nn(-c2ccccc2)c(Cl)c1/C=N/NC(=O)CNC(=O)c1ccccc1Cl, the Potency was “inactive”.
For COc1ccc(N=C(NN)c2ccc3ccccc3n2)cc1, the Potency was inconclusive: 20 µM [inhibitor, partial curve, poor fit].
For COc1ccc(S(=O)(=O)N(C)C[C@H]2OCCCC[C@H](C)Oc3ccc(N(C)C)cc3C(=O)N([C@H](C)CO)C[C@@H]2C)cc1, the Potency was inconclusive: 11.2 µM [inhibitor, partial curve].
With C1=C(c2ccccc2)Nc2ccccc2N=C1c1ccccc1 the Potency was “inactive”.
In the case of Cc1ccc(-n2c(SCC(=O)Nc3cc(C)on3)nc3ccccc3c2=O)cc1, the Potency is reported as inconclusive: 39.8 µM [inhibitor, single point].
For Cc1nonc1C(=O)N/N=C/c1ccc(O)c(O)c1, the Potency was inconclusive: 35.5 µM [inhibitor, partial curve].
With C/C(=N/Nc1ncc(Br)cn1)c1ccc(Br)cc1 the Potency was inconclusive: 50.1 µM [inhibitor, partial curve, poor fit].
CCOC(=O)CSc1nc2ccccc2c(=O)n1CC1CCCC1 was tested, and the Potency was inconclusive: 28.2 µM [inhibitor, partial curve, poor fit].
Cc1ccc(NC(=O)Nc2cccc(C)n2)cc1 was tested, and the Potency was “inactive”.
With NCCOc1ccc(C23CC4CC(CC(C4)C2)C3)cc1 the Potency was “inactive”.
In the case of CSc1ccccc1NC(=O)Cn1nc([N+](=O)[O-])cc1C, the Potency is reported as inconclusive: 39.8 µM [inhibitor, single point].
In the case of CCCSc1nc2cc(C)c(C)cc2n1CC(C)O (centres undefined), the Potency is reported as “inactive”.
With Cc1ccc(NC(=O)c2cc(N3C(=O)C=CC3=O)ccc2N2CCOCC2)cc1 the Potency was active: 22.4 µM.
O=S(=O)(NCCC1=CCCCC1)c1cccc(S(=O)(=O)N2CCOCC2)c1 was tested, and the Potency was inconclusive: 25.1 µM [inhibitor, partial curve].
For COc1cccc(-c2cnc3c(NC(C)=O)cc(-c4ccc(C(=O)N5CCOCC5)cc4)cn23)c1, the Potency was “inactive”.
For COc1ccc(C2NC(=S)N3C(c4ccc(OC)cc4)NC(=S)N23)cc1 (centres undefined), the Potency was inconclusive: 39.8 µM [inhibitor, single point].
In the case of CC(C)(C)NC(=O)C(=O)NNC(=O)c1cccc(Br)c1, the Potency is reported as “inactive”.
In the case of c1ccc(CNCc2ccco2)cc1, the Potency is reported as “inactive”.
With O=C1C=CC(=O)C(CNc2ccc(C(=O)OCc3ccccc3)cc2)=C1 the Potency was inconclusive: 3.16 µM [inhibitor, full curve, poor fit].
In the case of CN(Cc1ccccc1)C(=O)c1cc2cc(F)ccc2[nH]1, the Potency is reported as “inactive”.
Cc1ccc(C)c(NC(=O)COC(=O)c2cccc(S(=O)(=O)N3CCCCC3)c2)c1 was tested, and the Potency was “inactive”.
With CCCCSc1nc2c(cc1C#N)CCC2 the Potency was inconclusive: 39.8 µM [inhibitor, single point].
In the case of O=c1c2cc([N+](=O)[O-])ccc2sn1-c1ccccc1, the Potency is reported as active: 4.47 µM.
For CN(CC(=O)Nc1c(Cl)cccc1Cl)C(=O)Cc1ccc2c(c1)CCC2, the Potency was inconclusive: 17.8 µM [inhibitor, partial curve, poor fit].
In the case of CCOc1ccccc1-c1cc(-c2n[nH]c(=S)n2CC)c2ccccc2n1, the Potency is reported as inconclusive: 15.8 µM [inhibitor, partial curve].
In the case of Cc1ccc(S(=O)(=O)/N=C2/C=C(Sc3ncn[nH]3)C(=O)c3ccccc32)cc1, the Potency is reported as active: 7.94 µM.
O=S(=O)(c1cccc(Cl)c1)n1c(/C=C/c2ccccc2Cl)nc2ccccc21 was tested, and the Potency was inconclusive: 35.5 µM [inhibitor, single point].
In the case of COc1ccc(NC(=O)c2ccc(S(=O)(=O)N(C)c3ccccc3)cc2)cc1S(=O)(=O)N1CCOCC1, the Potency is reported as “inactive”.
For COc1c(OC2OC(C(=O)O)C(O)C(O)C2O)cc(O)c2c(=O)cc(-c3ccccc3)oc12 (centres undefined), the Potency was inconclusive: 35.5 µM [inhibitor, single point].
With OCC1OC(n2cnc3c(=S)nc[nH]c32)C(O)C1O (centres undefined) the Potency was inconclusive: 3.55 µM [inhibitor, full curve, poor fit].
With CN(Cc1ccccc1)c1ncnc2ccc(Br)cc12 the Potency was inconclusive: 31.6 µM [inhibitor, partial curve, poor fit].
For CCn1c(CSc2nc3ccccc3[nH]2)n[nH]c1=S, the Potency was inconclusive: 3.16 µM [inhibitor, partial curve, poor fit].
In the case of Cc1cc2nnc(SC3CCOC3=O)n2c2ccccc12 (centres undefined), the Potency is reported as inconclusive: 25.1 µM [inhibitor, single point].
For Cn1c(=O)c2c(nc(NCc3ccco3)n2CCc2ccccc2)n(C)c1=O, the Potency was inconclusive: 31.6 µM [inhibitor, single point].
For CCN(CC)C(=O)c1ccc2c3c(cccc13)C(=O)N(CCc1ccc(OC)c(OC)c1)C2=O, the Potency was “inactive”.
O=C(NCCCN1CCN(c2ccc(F)cc2)CC1)Nc1ccccc1Cl was tested, and the Potency was “inactive”.
With CN(Cc1ccccc1)C(=O)[C@@H]1CCCN1S(=O)(=O)c1ccc(Cl)cc1 the Potency was “inactive”.
With O=C(N/C(=C/c1ccco1)C(=O)N1CCc2ccccc21)c1ccco1 the Potency was inconclusive: 35.5 µM [inhibitor, partial curve, poor fit].
In the case of COc1ccc(C(=O)Nc2ccc(N3CCN(C)CC3)cc2)cc1, the Potency is reported as “inactive”.
S=c1[nH]nc(Cn2cnc3ccccc32)n1-c1ccccc1Cl was tested, and the Potency was inconclusive: 11.2 µM [inhibitor, partial curve, poor fit].
In the case of CN(C)S(=O)(=O)c1ccc(Cl)c(NC(=O)COC(=O)CNS(=O)(=O)c2c(F)cccc2F)c1, the Potency is reported as “inactive”.
With Cc1ccc(/C=C/C(=O)N2CC(=O)Nc3ccccc32)o1 the Potency was inconclusive: 25.1 µM [inhibitor, single point].
S=c1[nH]nc(-c2cccnc2)n1-c1ccc2c(c1)OCCO2 was tested, and the Potency was inconclusive: 31.6 µM [inhibitor, partial curve, poor fit].
COc1ccccc1-n1c(-c2cc(-c3ccc(F)cc3)n[nH]2)n[nH]c1=S was tested, and the Potency was inconclusive: 8.91 µM [inhibitor, partial curve, poor fit].
For O=C(Nc1nc2ccc(F)cc2s1)c1ccccn1, the Potency was inconclusive: 25.1 µM [inhibitor, partial curve, poor fit].
For CC(=O)Nc1cccc(-c2ccnc3c2CC(C(=O)NCCN(C)C)O3)c1 (centres undefined), the Potency was “inactive”.
In the case of CCOC(=O)c1cccc(NC(=O)CSc2ncc3c(n2)-c2ccc(Cl)cc2N(Cc2ccccc2)S3(=O)=O)c1, the Potency is reported as inconclusive: 35.5 µM [inhibitor, partial curve, poor fit].
For CN(C)C(=O)Oc1ccc(OCc2nc3ccccc3[nH]2)cc1, the Potency was inconclusive: 28.2 µM [inhibitor, partial curve, poor fit].
For C=CCNc1ncnc2c1cnn2-c1ccc(Cl)cc1, the Potency was inconclusive: 35.5 µM [inhibitor, partial curve, poor fit].
For Cn1c(SCC(=O)NCc2ccco2)nnc1-c1ccccc1, the Potency was “inactive”.
For COc1ccc(OC)c(C2C(C(=O)c3ccc(C)o3)=C(O)C(=O)N2CCN2CCOCC2)c1 (centres undefined), the Potency was “inactive”.
For COc1ccc(-c2cc(C(=O)NC(Cc3c[nH]c4ccccc34)C(=O)O)c(C)o2)cc1OC (centres undefined), the Potency was inconclusive: 35.5 µM [inhibitor, partial curve, poor fit].
COc1cccc(-c2nc(-c3ccccn3)no2)c1 was tested, and the Potency was inconclusive: 31.6 µM [inhibitor, partial curve, poor fit].
COc1cccc(/C=N/n2c(-c3cc(C)[nH]n3)n[nH]c2=S)c1O was tested, and the Potency was inconclusive: 6.31 µM [inhibitor, partial curve].
For O=C(Cn1nc(C(=O)O)c2ccccc2c1=O)c1cc(F)ccc1F, the Potency was inconclusive: 50.1 µM [inhibitor, single point].
With CC(C)(C)NC(=O)NC(=O)CSc1ccc(S(=O)(=O)N2CCOCC2)cn1 the Potency was inconclusive: 28.2 µM [inhibitor, partial curve, poor fit].
For O=C(O)c1ccccc1NC(=O)c1cc2ccccc2oc1=O, the Potency was inconclusive: 31.6 µM [inhibitor, single point].
In the case of C=CCOc1ccccc1CNn1c(C)n[nH]c1=S, the Potency is reported as inconclusive: 14.1 µM [inhibitor, partial curve].
For COc1ccc(C(=O)NCC2(c3ccccc3)CCOCC2)cc1[N+](=O)[O-], the Potency was inconclusive: 28.2 µM [inhibitor, partial curve, poor fit].
Cn1c(Cc2c[nH]c3ccccc23)n[nH]c1=S was tested, and the Potency was active: 17.8 µM.
With O=C(COc1ccc2ccc(=O)oc2c1)Nc1ccc2c(c1)OCCO2 the Potency was “inactive”.
In the case of O=C1S/C(=C\c2ccc(N3CCOCC3)o2)C(=O)N1Cc1ccc(F)cc1, the Potency is reported as inconclusive: 31.6 µM [inhibitor, partial curve, poor fit].
For CCn1c(CC(C)C)n[nH]c1=S, the Potency was inconclusive: 39.8 µM [inhibitor, partial curve, poor fit].
O=C(CSc1ccc(-c2cccs2)nn1)N1CCCCC1 was tested, and the Potency was inconclusive: 28.2 µM [inhibitor, partial curve, poor fit].
Nc1nc2ncc(C(=O)c3cc(Cl)cc(Cl)c3O)cc2s1 was tested, and the Potency was inconclusive: 35.5 µM [inhibitor, partial curve, poor fit].
CN(C)S(=O)(=O)c1cccc(C(=O)Nc2ccc3c(c2)CCC3)c1 was tested, and the Potency was “inactive”.
In the case of CCN(CC)c1ccc(C(=O)NNC(=O)C2CCN(c3ncnc4sc(C)c(C)c34)CC2)cc1, the Potency is reported as “inactive”.
